Drawing on the supplement of paper PMC9446081, this text covers relative growth for 60 compounds.

Screen size: about 39,000 compounds; about 220 (0.56%) showed activity. This is one part of the list.
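Further: static incubation at 37 °C against the wild-type strain, values averaged over two biological replicates.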

The assay concerns Escherichia coli K-12 BW25113. The experiment in a line: relative growth (OD600 normalised to plate interquartile mean) (fraction); higher = less growth inhibition, active = 0.2 or less. The following applies: 50 µM; LB; incubation time: overnight (16-24 h).
For the compound `C[C@@H]1CN([C@H](C)CO)S(=O)(=O)c2ccc(C#C[C@@H](C)O)cc2O[C@@H]1CN(C)C(=O)Cc1ccccn1`, the relative growth is inactive: 1.03. The result for `C[C@@H](O)[C@@H](O)[C@@H](O)C/C=N/NC(=O)c1ccc(C(=O)NO)cc1` reads inactive: 1.01; that for `C[C@@H]1CCCCO[C@@H](CN(C)C(=O)Nc2ccc3c(c2)OCO3)[C@H](C)CN([C@H](C)CO)C(=O)c2cc(NC(=O)C3CCCCC3)ccc2O1`, inactive: 1.02. Turning to `O=C(NC1CCCCC1)N(CCCl)[NH2+][O-]`, the relative growth is inactive: 0.998.

As to `C[C@H](CO)N1C[C@H](C)[C@H](CN(C)C(=O)NC2CCCCC2)Oc2ccc(NC(=O)Nc3cccc4ccccc34)cc2CC1=O`, the relative growth was inactive: 0.998. The result for `[N-]=[N+]=Nc1ccccc1C[C@]1(C(=O)N2CCCCC2)N=C(c2ccc(OCCCO)cc2)O[C@H]1c1ccccc1` reads inactive: 0.997; that for `CC(C)NC(=O)N(C)C[C@@H]1Oc2ccc(NC(=O)NC3CCCCC3)cc2C(=O)N([C@H](C)CO)C[C@@H]1C`, inactive: 1.01; that for `CN1CCN(C(=O)C[C@H]2CC[C@H](NC(=O)c3ccc4c(c3)OCO4)[C@@H](CO)O2)CC1`, inactive: 0.989. For `COc1ccc2c3c([nH]c2c1)[C@@H](CO)N(C[C@]13CCN(CC1)C(=O)Nc1cccc(c1)F)C(=O)c1ccc(cc1)F` the value was inactive: 1.03; for `O=C(C[C@@H]1CC[C@@H]2[C@H](COC[C@H](O)CN2S(=O)(=O)c2ccc(Oc3ccccc3)cc2)O1)NCCN1CCCCC1`, inactive: 0.983; for `C[C@H]1CCCCO[C@H](CN(C)S(=O)(=O)c2cccs2)[C@@H](C)CN([C@@H](C)CO)C(=O)c2cc(NC(=O)Cc3ccccc3)ccc2O1`, inactive: 0.985. For `C[C@@H]1CCCCO[C@@H](CN(C)S(=O)(=O)c2cn(C)cn2)[C@H](C)CN([C@@H](C)CO)C(=O)c2cc(NS(=O)(=O)c3ccccc3)ccc2O1` the value was inactive: 0.991; for `O=C(C[C@@H]1C[C@H]2c3cc(NC(=O)c4ccc5c(c4)OCO5)ccc3O[C@H]2[C@@H](CO)O1)NCc1ccccn1`, inactive: 1; for `C[C@@H]1CN([C@@H](C)CO)C(=O)c2c(c3ccccc3n2C)-c2ccccc2CO[C@H]1CN(C)C(=O)NC1CCCCC1`, inactive: 1.01. As to `C[C@@H]1CN([C@H](C)CO)C(=O)c2cc(NS(=O)(=O)c3ccc(F)cc3)ccc2O[C@@H](C)CCCCO[C@H]1CN(C)C(=O)Nc1ccccc1`, the relative growth was inactive: 0.969. The result for `C[C@@H]1CN([C@@H](C)CO)C(=O)c2cc(NC(=O)Nc3ccccc3)ccc2O[C@@H](C)CCCCO[C@H]1CN(C)Cc1ccc(C(F)(F)F)cc1` reads inactive: 0.998. The result for `COc1ccc(CN(C)C[C@H]2Oc3ccc(NS(=O)(=O)c4cn(C)cn4)cc3C(=O)N([C@H](C)CO)C[C@H]2C)cc1` reads inactive: 1; that for `CCS(=O)(=O)N1C[C@]2(CCN(CC2)Cc2cccc(c2)OC)c2c([nH]c3cc(ccc23)OC)[C@H]1CO`, inactive: 0.988; that for `C[C@H]1CN([C@@H](C)CO)C(=O)CCCn2cc(nn2)CO[C@@H]1CN(C)S(C)(=O)=O`, inactive: 1.02. For `COc1cccc(-c2ccc3c(c2)O[C@H](CN(C)C(=O)C2CC2)[C@@H](C)CN([C@H](C)CO)S3(=O)=O)c1` the value was inactive: 1.02; for `COc1ccc(COC[C@]23N=C4SCCCN4[C@H](c4ccccc4O2)[C@H]3CO[Si](C)(C)C(C)(C)C)cc1`, inactive: 0.749; for `COc1ccc(S(=O)(=O)Nc2ccc3c(c2)C(=O)N([C@H](C)CO)C[C@@H](C)[C@@H](CN(C)Cc2ccc(-c4ccccc4)cc2)O3)cc1`, inactive: 1.03. Turning to `Cc1noc(C)c1NC(=O)N(C)C[C@@H]1Oc2cc(C#CCN(C)C)ccc2S(=O)(=O)N([C@@H](C)CO)C[C@H]1C`, the relative growth is inactive: 1.

As for `Nc1ncn([C@@H]2O[C@H](CO)[C@@H](O)[C@H]2O)c(=O)n1`, the relative growth was inactive: 0.458. For `CO[C@@H]1CN(C)C(=O)c2cc(NS(=O)(=O)CC(F)(F)F)ccc2OC[C@H](C)N(C(=O)NC(C)C)C[C@@H]1C` the value was inactive: 0.971; for `CNC[C@@H]1OCCCC[C@@H](C)Oc2ccc(NS(=O)(=O)c3cn(C)cn3)cc2C(=O)N([C@@H](C)CO)C[C@@H]1C`, inactive: 0.999.

With `COc1ccc(CN(C)C[C@H]2OCCCC[C@H](C)Oc3ccc(NS(=O)(=O)c4ccccc4)cc3C(=O)N([C@@H](C)CO)C[C@@H]2C)cc1`, the relative growth is inactive: 1. The result for `COc1ccc(NC(=O)N(C)C[C@H]2OCCCC[C@@H](C)Oc3ccc(NS(=O)(=O)c4ccc(F)cc4)cc3C(=O)N([C@@H](C)CO)C[C@@H]2C)cc1` reads inactive: 0.985; that for `C[C@H]1CN([C@@H](C)CO)C(=O)c2cc(NS(=O)(=O)c3cccs3)ccc2O[C@H]1CN(C)S(C)(=O)=O`, inactive: 0.971. For the compound `NC(=O)C(C(N)=O)[C@H]1CCS(=O)(=O)C1`, the relative growth is inactive: 1.01. The result for `Cc1noc(C)c1NC(=O)Nc1ccc2c(c1)C(=O)N([C@H](C)CO)C[C@H](C)[C@@H](CN(C)S(=O)(=O)c1ccc(F)cc1)OCCCC[C@H](C)O2` reads inactive: 1.01; that for `O=C(N[C@H]1C=C[C@H](CC(=O)N2CCOCC2)O[C@H]1CO)c1ccccn1`, inactive: 0.99; that for `COc1ccc(NC(=O)Nc2ccc3c(c2)C(=O)N([C@@H](C)CO)C[C@H](C)[C@H](CN(C)S(=O)(=O)c2cccs2)OCCCC[C@@H](C)O3)cc1`, inactive: 1.04. For `CNC(=O)C(=O)NC[C@H]1CCCN1S(=O)(=O)c1cccs1` the value was inactive: 0.993; for `Nc1ccc2cc3ccc(N)cc3nc2c1.O=S(=O)(O)O`, inactive: 0.477. The result for `COc1cc2nc(N3CCN(C(=O)C4COc5ccccc5O4)CC3)nc(N)c2cc1OC.CS(=O)(=O)O` (stereo not given) reads inactive: 1.05; that for `C[C@H](CO)N1C[C@H](C)[C@@H](CN(C)S(=O)(=O)c2ccc(F)cc2)Oc2ccc(NS(=O)(=O)c3ccccc3)cc2CC1=O`, inactive: 0.972. As for `C[C@@H]1CN([C@@H](C)CO)S(=O)(=O)c2ccc(-c3cncnc3)cc2O[C@@H]1CN(C)C(=O)NC1CCCC1`, the relative growth is inactive: 0.985. For `C[C@H]1CCCCO[C@@H](CN(C)C(=O)Nc2ccccc2)[C@@H](C)CN([C@@H](C)CO)C(=O)c2cc(NC(=O)c3ccncc3)ccc2O1` the value was inactive: 0.968; for `Cc1cc(O)n(C[C@H]2CCCO2)c(=O)c1C#N`, inactive: 1.03. For `C[C@@H]1CCCCO[C@@H](CN(C)S(=O)(=O)c2ccc(Cl)cc2)[C@H](C)CN([C@H](C)CO)C(=O)c2cc(NS(=O)(=O)c3ccc(F)cc3)ccc2O1` the value was inactive: 1.01; for `COCC(=O)N1[C@@H]2c3ccc(C4=CCCCC4)c(=O)n3C[C@@H]2[C@@H](CO)[C@@H]1C(=O)N1CCOCC1`, inactive: 1.02. For `COC(=O)C[C@@H]1CC[C@@H]2[C@H](COc3ccc(NS(=O)(=O)c4ccccc4Cl)cc3C(=O)N2C)O1` the value was inactive: 0.958; for `COc1ccc2c3c([nH]c2c1)[C@H](CO)N(CC1CCCC1)C[C@]13CCN(CC1)C(=O)c1ccc(cc1)F`, inactive: 0.977; for `C[C@@H]1CN([C@H](C)CO)C(=O)c2cc(NC(=O)Nc3ccccc3)ccc2O[C@H]1CN(C)Cc1ccc(-c2ccccc2)cc1`, inactive: 1.03.

Take `Cc1noc(C)c1NC(=O)Nc1ccc2c(c1)CC(=O)N([C@@H](C)CO)C[C@H](C)[C@H](CN(C)S(=O)(=O)c1cccs1)O2`: the relative growth is inactive: 0.981. As for `O=C(O)CCCNC(=O)c1cccnc1`, the relative growth is inactive: 0.982. The result for `O=C(C[C@@H]1CC[C@H](NC(=O)C2CC2)[C@H](CO)O1)NCCCN1CCOCC1` reads inactive: 1.02. For `COc1ccc(NC(=O)Nc2ccc3c(c2)C(=O)N([C@@H](C)CO)C[C@H](C)[C@@H](CN(C)C(=O)NC2CCCCC2)OCCCC[C@H](C)O3)cc1` the value was inactive: 1. As for `C[C@H](CO)N1C[C@H](C)[C@H](CN(C)Cc2ccc(Cl)c(Cl)c2)OCCCC[C@H](C)Oc2ccc(NS(=O)(=O)c3ccc(F)cc3)cc2C1=O`, the relative growth was inactive: 1.03. For `CC(C)N1C[C@H](CNCc2ccc(Oc3ccccc3)cc2)Oc2c(NC(=O)c3ccncc3)cccc2C1=O` the value was inactive: 1.03; for `Cc1noc(C)c1NC(=O)N(C)C[C@H]1Oc2c(NS(=O)(=O)c3ccccc3)cccc2C(=O)N([C@@H](C)CO)C[C@H]1C`, inactive: 0.969. The result for `CO[C@H]1CN(C)C(=O)c2ccc(NC(=O)C3CC3)cc2OC[C@H](C)N(C(=O)Cc2ccccn2)C[C@H]1C` reads inactive: 0.988; that for `CC(C)NC(=O)N(C)C[C@@H]1OCCCC[C@H](C)Oc2ccc(NC(=O)Nc3ccc(F)cc3)cc2C(=O)N([C@H](C)CO)C[C@@H]1C`, inactive: 0.99. For `O=C(O)Cn1ccccc1=O` the value was inactive: 1.01; for `C[C@@H]1CCCCO[C@@H](CN(C)C(=O)Nc2ccc(C(F)(F)F)cc2)[C@H](C)CN([C@H](C)CO)C(=O)c2cc(NS(C)(=O)=O)ccc2O1`, inactive: 0.939. For the compound `COc1ccc(NC(=O)N(C)C[C@@H]2OCCCC[C@@H](C)Oc3ccc(NC(=O)NC4CCCCC4)cc3C(=O)N([C@@H](C)CO)C[C@H]2C)cc1`, the relative growth was inactive: 1.01. The result for `COc1ccc(S(=O)(=O)N(C)C[C@H]2OCCCC[C@H](C)Oc3ccc(NS(C)(=O)=O)cc3C(=O)N([C@@H](C)CO)C[C@@H]2C)cc1` reads inactive: 1.02; that for `COc1ccc(CC(N)C(=O)NC2C(CO)OC(n3cnc4c(N(C)C)ncnc43)C2O)cc1.Cl.Cl` (stereo not given), inactive: 0.717; that for `CC(C)(C)[S@@+]([O-])N1Cc2cc(C(=O)NCc3ccc4c(c3)OCO4)nc(-c3ccc(-c4ccc(C#N)cc4)cc3)c2[C@H]1CCO`, inactive: 1.03.
